The full ranking holds about 33,000 sequences; the median of “E-score (-0.5 to 0.5)” is about -0.056, and the highest 2% start at about 0.38. The list shows a part of the results.
molecular target: Stb4 (UniProt P50104); assay: PBM E-score (8-mer binding enrichment) (E-score (-0.5 to 0.5)); higher = stronger / more preferred TF binding; most listed sequences are background and not binding sites; settings: protein concentration: 200 nM; construct: GST-DNA-binding domain
Outline: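 Universal all-10-mer Agilent arrays, fresh or stripped once, were converted to double-stranded form by primer extension. GST-tagged yeast transcription factors from PURExpress in vitro transcription/translation, full-length or DNA-binding domain only, were applied at about 100-200 nM and detected with fluorescent anti-GST. After masliner normalisation, the Universal PBM Analysis Suite scored each ungapped eight-base word together with its reverse complement by E-score.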

Sequence	PBM E-score
ACCCAACA	-0.0981
ATAACACA	-0.0247
ATTGTTGA	-0.199
AAGTAGTG	-0.176
ATGCAAGC	-0.145
ATAGATCA	0.0146
AGTTAGAC	-0.0164
GGTAGCAA	-0.109
TATCTAGA	-0.169
CTGGCAAC	-0.243
AGTCAGAA	-0.104
CATGATGG	-0.269
ACAGCCTG	-0.25
CGGCACAC	0.274
AGGTAGCC	-0.0398
GAAGCAGC	-0.0283
CATATTGC	-0.0428
CATCGGCC	0.159
ACGTAAAG	-0.128
CCTCTGCG	-0.143
AGTATTGA	-0.226
AAACGACA	-0.138

Sequence	PBM E-score
GATTGCAC	-0.0781
CGAATTGA	0.0281
TGTGAAAA	-0.175
AAGGAACT	-0.0354
ACATATAG	-0.134
CTCCACCC	-0.145
GATAGATA	0.098
GATCAGGA	-0.029
ACAGGACT	-0.102
AAGATGGT	-0.0241
AAGGCGGG	-0.0393
CTCAGCCC	-0.169
GTCGCTCA	-0.129
TCCATCCA	-0.278
TCCTTCAA	-0.11
ACGATGTG	0.00046
CATTCTCC	-0.138
AGCTACGA	-0.277
ACGCGTCG	0.155
CGATTTTC	0.141
CGCGTGTA	-0.0132
TCTGTACA	0.137

Sequence	PBM E-score
CCTAGTCC	-0.0917
AGATCTGA	-0.0785
TGGACAAA	-0.0147
CCACTGAC	-0.219
GATATCAC	-0.0685
CGTTGCAC	0.159
ACAGTTCG	0.185
AATTCGAC	-0.265
CGCACCGA	0.105
CCGTTTCG	0.241
GACTAGTA	-0.097
ACCCCCCG	0.147
ACTATTTC	-0.0167
ACAAGCTC	0.0522
CGAAGGAC	0.139
CACTGTCG	0.057
GGCCAGCC	-0.0538
AATCAGAA	0.0584
GGACTGAC	0.00322
ATCTCCAT	-0.184
AATTTGAG	-0.0746
ATTTATTA	-0.025

Sequence	PBM E-score
TTTGAAAA	-0.166
AGGGGTAA	-0.254
AACACCGG	0.248
CGAGGCGC	0.155
AACCGGGG	0.164
GACGCGCA	-0.0515
AATGACGC	-0.238
AGTGAGCA	-0.114
ATCGAGAG	-0.194
CGAACCGC	0.0494
TATCATAA	-0.112
CGACGCGC	0.112
AGAGCGTA	-0.258
CTTGTGCA	-0.129
ACCCTACC	0.0725
TACGATGA	-0.101
CCTGTAGC	-0.23
CTCTGGGC	-0.184
GCCTTAAC	-0.196
ACAGTTTA	-0.209

Source: the supplement of paper PMC3334620
